{
  "source": "PubChem BioAssay (NCI)",
  "experiment_in_all_cases": "NCI anticancer screen, dose series, 48 h",
  "key": {"CCRF-CEM leukemia": {"test_system": "CCRF-CEM leukemia"}, "K-562 leukemia": {"test_system": "K-562 leukemia"}, "SK-OV-3 ovarian": {"test_system": "SK-OV-3 ovarian"}, "HOP-92 NSCLC": {"test_system": "HOP-92 NSCLC"}, "786-0 renal": {"test_system": "786-0 renal"}, "A498 renal": {"test_system": "A498 renal"}, "A549 NSCLC": {"test_system": "A549 NSCLC"}, "BT-549 breast": {"test_system": "BT-549 breast"}, "CAKI-1 renal": {"test_system": "CAKI-1 renal"}, "COLO 205 colon": {"test_system": "COLO 205 colon"}, "HCC-2998 colon": {"test_system": "HCC-2998 colon"}, "HCT-116 colon": {"test_system": "HCT-116 colon"}, "HCT-15 colon": {"test_system": "HCT-15 colon"}, "HOP-62 NSCLC": {"test_system": "HOP-62 NSCLC"}, "HS 578T breast": {"test_system": "HS 578T breast"}, "HT29 colon": {"test_system": "HT29 colon"}, "IGROV1 ovarian": {"test_system": "IGROV1 ovarian"}, "KM12 colon": {"test_system": "KM12 colon"}, "LOX IMVI melanoma": {"test_system": "LOX IMVI melanoma"}, "M14 melanoma": {"test_system": "M14 melanoma"}, "MDA-MB-231 breast": {"test_system": "MDA-MB-231 breast"}, "MDA-MB-435": {"test_system": "MDA-MB-435"}, "MDA-N": {"test_system": "MDA-N"}, "MOLT-4 leukemia": {"test_system": "MOLT-4 leukemia"}, "NCI-H23 lung": {"test_system": "NCI-H23 lung"}, "NCI-H460 lung": {"test_system": "NCI-H460 lung"}, "NCI/ADR-RES ovarian": {"test_system": "NCI/ADR-RES ovarian"}, "OVCAR-3 ovarian": {"test_system": "OVCAR-3 ovarian"}, "OVCAR-4 ovarian": {"test_system": "OVCAR-4 ovarian"}, "OVCAR-5 ovarian": {"test_system": "OVCAR-5 ovarian"}, "OVCAR-8 ovarian": {"test_system": "OVCAR-8 ovarian"}, "PC-3 prostate": {"test_system": "PC-3 prostate"}, "RXF 393 renal": {"test_system": "RXF 393 renal"}, "SF-268 CNS": {"test_system": "SF-268 CNS"}, "SF-295 CNS": {"test_system": "SF-295 CNS"}, "SF-539 CNS": {"test_system": "SF-539 CNS"}, "SK-MEL-2 melanoma": {"test_system": "SK-MEL-2 melanoma"}, "SK-MEL-28 melanoma": {"test_system": "SK-MEL-28 melanoma"}, "SK-MEL-5 melanoma": {"test_system": "SK-MEL-5 melanoma"}, "SN12C renal": {"test_system": "SN12C renal"}, "SNB-75 CNS": {"test_system": "SNB-75 CNS"}, "SW-620 colon": {"test_system": "SW-620 colon"}, "T-47D breast": {"test_system": "T-47D breast"}, "TK-10 renal": {"test_system": "TK-10 renal"}, "U251 CNS": {"test_system": "U251 CNS"}, "UO-31 renal": {"test_system": "UO-31 renal"}, "HOP-18 NSCLC": {"test_system": "HOP-18 NSCLC"}},
  "note": "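Briefly, cells in 96-well plates were exposed to five compound concentrations for 48 h, and endpoints were estimated by linear interpolation. GI50 is the concentration that inhibits growth by half.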 For part of its entries the source gives two or more results. They are shown here; other results are not. There may be further records. For some of these results: The tests behind the records often covered other concentration ranges, which the source does not state; a value can be the end of its range. For some of these results: Values that stand side by side repeat one measurement (runs, samples, wells, individuals or studies). What stands in brackets tells the records apart. A, B and so on number the origins entry by entry.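 At the TGI there is no net growth.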",
  "data": [
    {"smiles": "O=C(Nc1ccc(Br)cc1)c1cc(Br)ccc1O", "values": [
      {"measurement": "TGI", "setting": "CCRF-CEM leukemia", "result": "4.94 µM [sample A, mean of 2 tests] and > 100 µM [sample B, 1 test]"},
      {"measurement": "TGI", "setting": "K-562 leukemia", "result": "2.74 µM [sample A, mean of 2 tests] and > 100 µM [sample B, mean of 2 tests]"},
      {"measurement": "TGI", "setting": "SK-OV-3 ovarian", "result": "> 68.2 µM [sample A, mean of 2 tests] and 4.86 µM [sample B, mean of 2 tests]"}
    ]},
    {"smiles": "CCOC(=O)c1ccc(N[C@@H]2c3cc4c(cc3C(c3cc(OC)c(O)c(OC)c3)[C@H]3C(=O)OCC32)OCO4)cc1", "note": "(stereo not given in full)", "values": [
      {"measurement": "TGI", "setting": "HOP-92 NSCLC", "result": "820 nM and 8.71 µM"}
    ]},
    {"smiles": "CC(C)C[C@H](NC(=O)[C@@H](N)Cc1cccc2ccccc12)B(O)O", "values": [
      {"measurement": "TGI", "setting": "786-0 renal", "result": "6.21 µM and 525 nM"},
      {"measurement": "TGI", "setting": "A498 renal", "result": "977 nM and 63.1 nM"},
      {"measurement": "TGI", "setting": "A549 NSCLC", "result": "50 µM and 1.86 µM"},
      {"measurement": "TGI", "setting": "BT-549 breast", "result": "10.5 µM and 67.6 nM"},
      {"measurement": "TGI", "setting": "CAKI-1 renal", "result": "2.57 µM and 79.1 nM"},
      {"measurement": "TGI", "setting": "CCRF-CEM leukemia", "result": "50 µM and 13.1 nM"},
      {"measurement": "TGI", "setting": "COLO 205 colon", "result": "50 µM and 264 nM"},
      {"measurement": "TGI", "setting": "HCC-2998 colon", "result": "825 nM and 45.5 nM"},
      {"measurement": "TGI", "setting": "HCT-116 colon", "result": "459 nM and 36.2 nM"},
      {"measurement": "TGI", "setting": "HCT-15 colon", "result": "3.69 µM and 119 nM"},
      {"measurement": "TGI", "setting": "HOP-62 NSCLC", "result": "3.78 µM and 201 nM"},
      {"measurement": "TGI", "setting": "HOP-92 NSCLC", "result": "1.74 µM and 128 nM"},
      {"measurement": "GI50", "setting": "HS 578T breast", "result": "319 nM and 28.3 nM"},
      {"measurement": "TGI", "setting": "HS 578T breast", "result": "50 µM and 78.3 nM"},
      {"measurement": "TGI", "setting": "HT29 colon", "result": "50 µM and 48.4 nM"},
      {"measurement": "TGI", "setting": "IGROV1 ovarian", "result": "5.23 µM and 263 nM"},
      {"measurement": "GI50", "setting": "K-562 leukemia", "result": "722 nM and 27.1 nM"},
      {"measurement": "TGI", "setting": "K-562 leukemia", "result": "50 µM and 487 nM"},
      {"measurement": "TGI", "setting": "KM12 colon", "result": "2.21 µM and 83.4 nM"},
      {"measurement": "TGI", "setting": "LOX IMVI melanoma", "result": "555 nM and 44.4 nM"},
      {"measurement": "TGI", "setting": "M14 melanoma", "result": "4.73 µM and 224 nM"},
      {"measurement": "TGI", "setting": "MDA-MB-231 breast", "result": "12.3 µM and 123 nM"},
      {"measurement": "TGI", "setting": "MDA-MB-435", "result": "245 nM and 19.3 nM"},
      {"measurement": "TGI", "setting": "MDA-N", "result": "50 µM and 10.4 nM"},
      {"measurement": "TGI", "setting": "MOLT-4 leukemia", "result": "50 µM and 49.2 nM"},
      {"measurement": "TGI", "setting": "NCI-H23 lung", "result": "987 nM and 97.3 nM"},
      {"measurement": "TGI", "setting": "NCI-H460 lung", "result": "4.53 µM and 233 nM"},
      {"measurement": "TGI", "setting": "NCI/ADR-RES ovarian", "result": "50 µM and 414 nM"},
      {"measurement": "TGI", "setting": "OVCAR-3 ovarian", "result": "754 nM and 38.9 nM"},
      {"measurement": "TGI", "setting": "OVCAR-4 ovarian", "result": "50 µM and 228 nM"},
      {"measurement": "TGI", "setting": "OVCAR-5 ovarian", "result": "6.71 µM and 128 nM"},
      {"measurement": "TGI", "setting": "OVCAR-8 ovarian", "result": "50 µM and 220 nM"},
      {"measurement": "TGI", "setting": "PC-3 prostate", "result": "5.76 µM and 299 nM"},
      {"measurement": "TGI", "setting": "RXF 393 renal", "result": "476 nM and < 28.3 nM"},
      {"measurement": "TGI", "setting": "SF-268 CNS", "result": "50 µM and 127 nM"},
      {"measurement": "TGI", "setting": "SF-295 CNS", "result": "1.81 µM and < 43.9 nM"},
      {"measurement": "TGI", "setting": "SF-539 CNS", "result": "1.11 µM and 33.8 nM"},
      {"measurement": "TGI", "setting": "SK-MEL-2 melanoma", "result": "3.16 µM and 165 nM"},
      {"measurement": "TGI", "setting": "SK-MEL-28 melanoma", "result": "32.4 µM and 23.6 nM"},
      {"measurement": "TGI", "setting": "SK-MEL-5 melanoma", "result": "840 nM and 49.4 nM"},
      {"measurement": "TGI", "setting": "SK-OV-3 ovarian", "result": "50 µM and 1.36 µM"},
      {"measurement": "TGI", "setting": "SN12C renal", "result": "16.8 µM and 149 nM"},
      {"measurement": "TGI", "setting": "SNB-75 CNS", "result": "28.8 µM and 74.3 nM"},
      {"measurement": "TGI", "setting": "SW-620 colon", "result": "1.26 µM and 28.7 nM"},
      {"measurement": "TGI", "setting": "T-47D breast", "result": "1.79 µM and 54.8 nM"},
      {"measurement": "TGI", "setting": "TK-10 renal", "result": "16.1 µM and 112 nM"},
      {"measurement": "TGI", "setting": "U251 CNS", "result": "5.06 µM and 252 nM"},
      {"measurement": "TGI", "setting": "UO-31 renal", "result": "2.06 µM and 149 nM"}
    ]},
    {"smiles": "COc1ccc(-c2cc(-c3ccco3)c(C#N)c(=O)n2C2OC(COC(C)=O)C(OC(C)=O)C(OC(C)=O)C2OC(C)=O)cc1", "note": "(stereo not given)", "values": [
      {"measurement": "GI50", "setting": "CCRF-CEM leukemia", "result": "7.37 µM [sample A, 1 test] and > 100 µM [sample B, 1 test]"},
      {"measurement": "GI50", "setting": "HCT-116 colon", "result": "> 100 µM [sample A, 1 test] and 8.65 µM [sample B, 1 test]"},
      {"measurement": "GI50", "setting": "HOP-18 NSCLC", "result": "> 100 µM [sample A, 1 test] and 6.5 µM [sample B, 1 test]"}
    ]}
  ]
}
